Source: the supplement of paper PMC10126150
Values marked as one replicate rest on one cluster of the flow cell; about a third of the high ones do not repeat.

system: ATP; assay: switch fluorescence ratio, 500 uM ATP over buffer (Cy3 cluster intensity, sum of 5 cycles each) (fold (ratio)); higher = stronger signal-on switching upon ATP binding; sequences stand for … in TCGTCGGCAGCGTCAGATGTGTATAAGAGACAGTTTTTTTTTTTTTTTTTTTTTTTTT…TC; conditions: aptamer strand: ATP DNA aptamer (quencher-CACCTGGGGGAGTATTGCGGAGGAAGG + anchor), 100 nM annealed; ATP concentration: 500 uM; one replicate
Procedure, shortened: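 Imaging in selection buffer was followed by imaging after 15 min with 500 uM ATP at 22 °C, for Cy3-labelled switching-strand clusters annealed to 100 nM quencher-labelled ATP aptamer on a modified Illumina MiSeq flow-cell. Five of these buffer/ATP cycles ran, separated by NaOH stripping and re-annealing. The fluorescence ratio per cluster is summed target-cycle over summed buffer-cycle Cy3 intensity, averaged per switch-domain sequence; clusters outside 100-1000 RFU were removed.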
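Also: ATP exposure 15 min at 22 °C before imaging.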

Sequence | switch fluorescence ratio
TGGTGAGCTA | 0.942
TGGTGAGGAC | 1.02
TGGTGAGGTC | 0.994
TGGTGATATA | 1.01
TGGTGCGATC | 1.06
TGGTGCTATA | 0.999
TGGTGGGA | 0.966
TGGTGGTGCG | 0.986
TGGTGTGCAA | 1.09
TGGTGTGGT | 1.07
TGGTGTGTT | 1
TGGTTAAACA | 1.02
TGGTTATAT | 1.01
TGGTTCGATA | 1.01
TGGTTCTGAT | 0.927
TGGTTGATA | 0.981
TGGTTGCCGT | 1.04
TGGTTGTAGC | 1
TGTAAAGGGC | 1.03
TGTAACTACA | 1.05
TGTAAGCCCT | 0.973
TGTAATAACG | 1.04
TGTAATACTA | 1.16
TGTAATCGCC | 0.985
TGTACGAGTG | 1
TGTAGAACTA | 1.02

Sequence | switch fluorescence ratio
TGTAGAGCCT | 1.02
TGTAGCTCTT | 0.956
TGTAGGCACA | 1.02
TGTAGGGTGG | 1.02
TGTAGGTTGA | 0.976
TGTAGTACAG | 1.04
TGTAGTAGT | 0.996
TGTAGTCGGC | 1.14
TGTAGTTCTG | 0.99
TGTATAATAG | 1
TGTATATGCT | 0.99
TGTATCACG | 0.991
TGTATGCAGG | 0.935
TGTATGCTGC | 0.935
TGTATTAACA | 0.994
TGTATTGTAT | 0.979
TGTATTTTC | 1.03
TGTATTTTGC | 0.936
TGTCAAGTA | 1.07
TGTCAATGTA | 0.991
TGTCACTTGA | 0.991
TGTCATACAA | 0.974
TGTCATGGAA | 0.97
TGTCATGT | 0.986
TGTCCATGAC | 1.02
TGTCCGATTA | 1.04

Sequence | switch fluorescence ratio
TGTCCGGAGT | 1.11
TGTCCGGGCA | 0.957
TGTCCTTGG | 1
TGTCGAAACT | 1.02
TGTCGCGGTG | 1.05
TGTCGGGACT | 0.993
TGTCGTCAAA | 0.992
TGTCGTGCG | 1.02
TGTCGTGTCA | 0.989
TGTCGTTAAA | 0.991
TGTCTAATGG | 1.01
TGTCTGCGGG | 1.04
TGTCTGTCGA | 0.987
TGTCTGTGCG | 1.02
TGTCTTCCGC | 1.2
TGTGAATAAG | 0.975
TGTGACAAGT | 0.954
TGTGACCCCG | 0.904
TGTGACTAAA | 0.985
TGTGACTTTA | 1.05
TGTGAGAGCC | 1.02
TGTGAGCCGG | 0.977
TGTGAGTCAT | 0.962
TGTGATCAAG | 1
TGTGATTAGC | 1.04
TGTGCAAAAA | 0.989

Sequence | switch fluorescence ratio
TGTGCAATAG | 4.16
TGTGCACTAC | 1.74
TGTGCCGTTG | 1.04
TGTGCGTCGT | 0.961
TGTGCTGCCG | 1.07
TGTGCTTTAG | 1.02
TGTGGAAAAC | 1.05
TGTGGAAGTG | 1.06
TGTGGAGG | 1.02
TGTGGATATC | 0.946
TGTGGCCAAA | 0.976
TGTGGCCTGT | 0.997
TGTGGGTAAC | 1.07
TGTGGGTGAA | 0.995
TGTGGGTTAG | 1
TGTGTATATA | 1
TGTGTCACGG | 0.988
TGTGTCATTT | 1.02
TGTGTCGTTT | 0.972
TGTGTCTTGC | 0.964
TGTGTGCGGA | 1.02
TGTGTGGAAT | 0.971
TGTGTGTTGT | 0.998
TGTTAACGAG | 1.03
TGTTACAGGT | 1.04
TGTTACCCCG | 0.98

Sequence | switch fluorescence ratio
TGTTACGGGA | 1.04
TGTTAGAGTG | 1.04
TGTTAGGATA | 1.05
TGTTATAGCT | 1.06
TGTTATTCA | 1.02
TGTTCAGTAC | 1.1
TGTTCTAAAA | 1.05
TGTTCTTCCT | 1.09
TGTTGAGGG | 0.948
TGTTGCTTAG | 1.04
TGTTGGACG | 1
TGTTGTCGAG | 0.981
TGTTGTCGGC | 0.983
TGTTGTTGAG | 0.987
TGTTTAATGA | 1.03
TGTTTATGTA | 0.981
TGTTTCCTTG | 1.01
TGTTTCGTTG | 1
TGTTTGTTTT | 0.996
TGTTTTCTCT | 0.991
TGTTTTGAGG | 0.993
TGTTTTTGCA | 1.05
TTAAAATAAT | 1.01
TTAAAGAGAC | 1.01
TTAAAGCCGC | 1.19
TTAAAGCGCA | 1

Sequence | switch fluorescence ratio
TTAAAGGGAC | 1.01
TTAAAGGGAG | 0.976
TTAAAGTATC | 2.17
TTAAATCGCT | 1.04
TTAAATTATA | 1.02
TTAAATTGGC | 1
TTAACAATGT | 1.01
TTAACACCAA | 1
TTAACCACAC | 1.16
TTAACCGTTG | 1
TTAACCTAAT | 1.04
TTAACGACCG | 1.18
TTAACGGTTG | 0.949
TTAACTAATT | 1.06
TTAACTATC | 1.01
TTAACTGATT | 0.983
TTAACTTGGT | 0.982
TTAAGAAAGC | 1.05
TTAAGAGATG | 0.996
TTAAGCGCAG | 1.01
TTAAGCTATG | 1.01
TTAAGGCTGC | 1.14
TTAAGGTTTG | 0.943
TTAAGTCAG | 1.02
TTAAGTGCAA | 1.05
TTAATACCTA | 1.04

Sequence | switch fluorescence ratio
TTAATAGCAA | 1
TTAATCGTA | 0.998
TTAATGAGG | 1.07
TTAATGCCAG | 1.03
TTAATGCG | 0.984
TTAATGGATT | 1.01
TTAATGGCAG | 1.02
TTAATGTTTT | 1
TTAATTACTA | 0.997
TTAATTAGAC | 1.01
TTAATTCGTA | 1.01
TTACAAAGTA | 0.984
TTACAACTTG | 1
TTACAAGT | 0.975
TTACAAGTCG | 1
TTACAATCA | 1.09
TTACAATCGT | 0.949
TTACAATTGA | 1.06
TTACACTTAC | 1.43
TTACAGACGC | 1.1
TTACAGATCG | 1.06
TTACAGATTG | 1.03
TTACAGCGAC | 1.18
TTACAGTTTA | 1.03
TTACATTATG | 1.01
TTACATTCTC | 1.05

Sequence | switch fluorescence ratio
TTACATTGAC | 1.01
TTACATTGGC | 1.08
TTACCAAGTG | 1.03
TTACCACTG | 1
TTACCCCCGC | 1.4
TTACCGCGGT | 0.961
TTACCGTCCC | 1.57
TTACGACCTT | 1.31
TTACGAGTCA | 1.04
TTACGGATA | 1.02
TTACGGGGCT | 1.07
TTACGGGTTC | 0.998
TTACGTAACG | 1.1
TTACGTATCG | 1.01
TTACGTCAAC | 1.31
TTACGTTGAT | 0.974
TTACTCCATT | 1.27
TTACTCCGAA | 2.26
TTACTGAC | 1.21
